Laboratory results taken from PubChem BioAssay AID588453 (National Center for Advancing Translational Sciences (NCATS), 2011).
Hit rate of the full screen: of about 390,000 compounds, about 4,000 (1%) were called active. The shares of active, inactive and inconclusive entries below differ from those in the screen. The call rests on the fitted dose curve; in most records, active means well fitted inhibition curve with a large enough effect; inconclusive means small, poorly fitted or top-dose-only effect; inactive means no such curve, though single readings can be large or run the other way. Potencies beside an inconclusive call are fits to weak or partial responses and may not hold up.

target: Thioredoxin reductase 1, cytoplasmic (Rattus norvegicus) (UniProt O89049); test: qHTS Assay for Inhibitors of Mammalian Selenoprotein Thioredoxin Reductase 1 (TrxR1): qHTS; settings: recombinant rTrxR1, NADPH fluorescence consumption, selenite substrate; series mostly up to 114 µM; further: nearly all actives have a fitted effect of over 65% in size
In short: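 Rat TrxR1 (90 nM in the dispensed reagent) was pre-reduced with 400 uM NADPH for 5 min at room temperature, then incubated with compound for 15 min. After 400 uM selenite was added, NADPH fluorescence (Ex 340/Em 450 nm) was followed for 8 min.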
Potency means the concentration at half of the fitted maximal effect; tags describe the fitted curve by direction and shape.

UniProt O89049, sequence (O89049 whole entry, looked up): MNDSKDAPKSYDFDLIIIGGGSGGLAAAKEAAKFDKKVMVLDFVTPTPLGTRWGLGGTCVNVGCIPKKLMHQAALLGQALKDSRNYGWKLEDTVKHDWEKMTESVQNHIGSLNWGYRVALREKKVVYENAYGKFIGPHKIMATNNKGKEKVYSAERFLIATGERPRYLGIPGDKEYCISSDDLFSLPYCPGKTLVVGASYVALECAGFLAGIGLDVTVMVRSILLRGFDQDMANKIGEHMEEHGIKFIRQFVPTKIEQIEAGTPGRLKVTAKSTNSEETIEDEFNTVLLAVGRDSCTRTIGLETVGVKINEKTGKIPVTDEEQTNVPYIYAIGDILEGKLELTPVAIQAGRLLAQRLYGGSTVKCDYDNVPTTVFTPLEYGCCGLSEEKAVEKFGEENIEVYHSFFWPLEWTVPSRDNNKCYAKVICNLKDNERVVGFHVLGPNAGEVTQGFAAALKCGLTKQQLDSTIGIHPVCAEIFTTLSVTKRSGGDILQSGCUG

Compound | Potency
COC(=O)c1ccc(NS(=O)(=O)c2cc3c4c(c2)CCC(=O)N4CCC3)cc1 | inconclusive: 79.4 µM [inhibitor, partial curve, poor fit]
CNC(=O)COC(=O)c1ccc(NC(=O)CC#N)cc1 | inconclusive: 6.31 µM [inhibitor, single point]
CCN1C/C(=C\c2cccc([N+](=O)[O-])c2)C(=O)/C(=C/c2cccc([N+](=O)[O-])c2)C1 | inconclusive: 44.7 µM [inhibitor, partial curve, poor fit]
Cc1cccc(N2CCN(C(=O)n3ccnc3)CC2)c1C | inconclusive: 44.7 µM [inhibitor, partial curve, poor fit]
CN(C(=O)COC(=O)c1nc(Cl)c(Cl)c(Cl)c1Cl)C1CCS(=O)(=O)C1 (stereo not given) | active: 14.1 µM
C/C(=N\Nc1ccc(Cl)cc1)c1ccccn1 | inconclusive: 39.8 µM [inhibitor, single point]
CCOC(=O)C1=C(C)N=c2s/c(=C3\C(=O)Nc4ccccc43)c(=O)n2C1c1ccc2c(c1)OCO2 (stereo not given) | inconclusive: 28.2 µM [inhibitor, full curve]
CCOC(=O)c1sc2nc(N3CCCC3)c3c(c2c1N)CC(C)(C)OC3 | inactive
Cc1cc(C)c(S(=O)(=O)Nc2cc(SCC(=O)O)c(O)c3ccccc23)cc1C | inconclusive: 39.8 µM [inhibitor, partial curve]
Cc1cc(OCC(=O)Nc2ccc(C(=O)OC3CCCCC3)cc2)cc(C)c1Cl | inactive
CC(=O)N1CN(C2CCCC2)Cc2c1sc1c2CCCC1 | inconclusive: 10 µM [inhibitor, partial curve, poor fit]
Cc1cccc2[nH]cc(/C=C3/C=Nc4ccccc43)c12 | inactive
COc1cc(C(=O)NC(=S)Nc2ccc(N3CCCC3)cc2)cc(OC)c1OC | inconclusive: 44.7 µM [inhibitor, partial curve, poor fit]
Cc1nn(Cc2ccc(C(=O)NC(C)(C)C)o2)c(C)c1Br | inconclusive: 100 µM [inhibitor, partial curve, poor fit]
O=C1c2ccccc2C(=O)N1CCc1csc(NNc2nc(CCN3C(=O)c4ccccc4C3=O)cs2)n1 | inconclusive: 28.2 µM [inhibitor, single point]
Cc1nc2sc(C(c3ccco3)N3CC(C)OC(C)C3)c(O)n2n1 (stereo not given) | inconclusive: 17.8 µM [inhibitor, partial curve, poor fit]
CCN(CC)CCN1C(=O)C(=O)/C(=C(/O)c2cnn(-c3ccccc3)c2C)C1c1ccc(C)o1 (stereo not given) | inconclusive: 31.6 µM [inhibitor, single point]
Cc1cccc2sc(N(CCN3CCOCC3)C(=O)CCS(=O)(=O)c3ccccc3)nc12 | inconclusive: 39.8 µM [inhibitor, partial curve, poor fit]
Cc1ccc(S(=O)(=O)N2CCOCC2)cc1NC(=O)COC(=O)c1cnc(Cl)c(Cl)c1 | inconclusive: 56.2 µM [inhibitor, single point]
Cc1ccc(C(=O)NC(=S)Nc2ccc(CN3CCOCC3)cc2)cc1 | inconclusive: 12.6 µM [inhibitor, partial curve, poor fit]

Compound | Potency
CCN(CC)S(=O)(=O)c1ccc(N/N=C/c2cc(OC)c(OC)cc2OC)nc1 | inconclusive: 89.1 µM [inhibitor, single point]
NNc1nc2sc3c(c2c(=O)[nH]1)CCc1ccccc1-3 | inactive
Cc1occc1C(=O)NNC(=S)NC(=O)COc1ccc(Cl)cc1Cl | inconclusive: 14.1 µM [inhibitor, partial curve]
COC(=O)c1ccc(-c2nc(CN3CCCN(C(=O)c4ccco4)CC3)c(C)o2)cc1 | inconclusive: 50.1 µM [inhibitor, partial curve, poor fit]
CN(C(=O)c1ccc(-c2ccccc2)cc1)C1CCCCC1 | inactive
Fc1ccc(-n2[nH]nnc2=S)cc1N1CCCC1 | inconclusive: 10 µM [inhibitor, partial curve, poor fit]
O=C(NC(=S)Nc1ccccc1Br)c1ccc2c(c1)OCO2 | inconclusive: 25.1 µM [inhibitor, full curve]
Cc1cc(C(=O)Cn2nc(C(=O)O)c3ccccc3c2=O)c(C)n1C1CC1 | inactive
O=C(OCC(=O)N1CCN(C(=O)c2ccco2)CC1)c1ccc(Cl)nc1 | inconclusive: 70.8 µM [inhibitor, single point]
Cc1ccc(NC(=O)COC(=O)C2CC3C=CC2C3)cc1S(=O)(=O)N1CCCCC1 (stereo not given) | inactive
COC(=O)c1[nH]c(C)c(/C(O)=C2\C(=O)C(=O)N(CCN(C)C)C2c2ccc(C)o2)c1C (stereo not given) | inconclusive: 11.2 µM [inhibitor, partial curve, poor fit]
CCN1C(=O)c2cccc3c(S(=O)(=O)NCc4ccco4)ccc1c23 | inconclusive: 8.91 µM [inhibitor, full curve, poor fit]
CN(C)/C=C1\C=Cc2ccccc21 | active: 2.24 µM
CSc1ncc(CN2CCN(CC=C(C)C)C(CCO)C2)cn1 (stereo not given) | inactive
CCOC(=O)c1cnc2ccc(OC)cc2c1NCCc1ccc(OC)c(OC)c1 | inconclusive: 89.1 µM [inhibitor, partial curve, poor fit]
CC(=O)N1CCOc2ccc(S(=O)(=O)N3CCC(C(=O)Nc4ccc(F)cc4)CC3)cc21 | inactive
Cc1ccc(C(=O)CCNc2ccc(F)c(Cl)c2)o1 | active: 56.2 µM
O=C1C=CC2(O[C@H](c3ccccc3)[C@@H](c3ccccc3)O2)[C@H](Sc2ccccc2O)C1 | inconclusive: 0.891 µM [inhibitor, full curve, poor fit]
CCc1ccc(C(=O)CSC2=C(C#N)C(c3ccco3)C(C(C)=O)=C(C)N2)cc1 (stereo not given) | inconclusive: 25.1 µM [inhibitor, partial curve]
COC(=O)[C@]1(C)CCC[C@@]2(C)C3CC[C@@]4(C)C[C@]3(CCC21)CC(=O)N4Cc1ccc(OC)cc1 (stereo not given in full) | inconclusive: 4.47 µM [inhibitor, partial curve, poor fit]
